Numbering of substitutions follows the chain as printed. In names and notes the source's numbering stands. Results are given in words; binding and its absence hold for the method and conditions named. In cells and extracts the contact can be indirect. Some entries that bind do so weakly or less than the wild type. For part of these data: Where a sequence is shown, tags or fusion partners need not be part of it.
B1: RFP-tagged Codanin-1, U2OS cells (protein, UniProt Q8IWY9 1-1227)
chain: MAAVLESLLREEVSVAAVVRWIARSTQGSEDNAGEAAALSSLRALRKEFVPFLLNFLREQSSRVLPQGPPTPAKTPGASAALPGRPGGPPRGSRGARSQLFPPTEAQSTAAEAPLARRGGRRRGPGPARERGGRGLEEGVSGESLPGAGGRRLRGSGSPSRPSLTLSDPPNLSNLEEFPPVGSVPPGPTGTKPSRRINPTPVSEERSLSKPKTCFTSPPISCVPSSQPSALDTSPWGLGLPPGCRSLQEEREMLRKERSKQLQQSPTPTCPTPELGSPLPSRTGSLTDEPADPARVSSRQRLELVALVYSSCIAENLVPNLFLELFFVFQLLTARRMVTAKDSDPELSPAVLDSLESPLFQSIHDCVFFAVQVLECHFQVLSNLDKGTLKLLAENERLLCFSPALQGRLRAAYEGSVAKVSLVMPPSTQAVSFQPETDNRANFSSDRAFHTFKKQRDVFYEVLREWEDHHEEPGWDFEKGLGSRIRAMMGQLSAACSHSHFVRLFQKQLLQMCQSPGGAGGTVLGEAPDVLSMLGADKLGRLWRLQERLMAPQSSGGPCPPPTFPGCQGFFRDFILSASSFQFNQHLMDSLSLKIQELNGLALPQHEPNDEDGESDVDWQGERKQFAVVLLSLRLLAKFLGFVAFLPYRGPEPPPTGELQDSILALRSQVPPVLDVRTLLQRGLQARRAVLTVPWLVEFLSFADHVVPLLEYYRDIFTLLLRLHRSLVLSQESEGKMCFLNKLLLLAVLGWLFQIPTVPEDLFFLEEGPSYAFEVDTVAPEHGLDNAPVVDQQLLYTCCPYIGELRKLLASWVSGSSGRSGGFMRKITPTTTTSLGAQPSQTSQGLQAQLAQAFFHNQPPSLRRTVEFVAERIGSNCVKHIKATLVADLVRQAESLLQEQLVTQGEEGGDPAQLLEILCSQLCPHGAQALALGREFCQRKSPGAVRALLPEETPAAVLSSAENIAVGLATEKACAWLSANITALIRREVKAAVSRTLRAQGPEPAARGERRGCSRACEHHAPLPSHLISEIKDVLSLAVGPRDPDEGVSPEHLEQLLGQLGQTLRCRQFLCPPAEQHLAKCSVELASLLVADQIPILGPPAQYRLERGQARRLLHMLLSLWKEDFQGPVPLQLLLSPRNVGLLADTRPREWDLLLFLLRELVEKGLMGRMEIEACLGSLHQAQWPGDFAEELATLSNLFLAEPHLPEPQLRACELVQPNRGTVLAQS
B2: Codanin-1, endogenous in U2OS cells (protein, UniProt Q8IWY9 1-1227)
chain: B1 chain
B3: C15ORF41, endogenous in U2OS cells (protein, UniProt Q9Y2V0 1-281)
chain: MILTKAQYDEIAQCLVSVPPTRQSLRKLKQRFPSQSQATLLSIFSQEYQKHIKRTHAKHHTSEAIESYYQRYLNGVVKNGAAPVLLDLANEVDYAPSLMARLILERFLQEHEETPPSKSIINSMLRDPSQIPDGVLANQVYQCIVNDCCYGPLVDCIKHAIGHEHEVLLRDLLLEKNLSFLDEDQLRAKGYDKTPDFILQVPVAVEGHIIHWIESKASFGDECSHHAYLHDQFWSYWNRFGPGLVIYWYGFIQELDCNRERGILLKACFPTNIVTLCHSIA
B4: RFP-tagged Codanin-1 R714W, U2OS cells (protein, UniProt Q8IWY9 1-1227)
chain: B1 chain with R714W
B5: RFP-tagged Codanin-1 R1042W, U2OS cells (protein, UniProt Q8IWY9 1-1227)
chain: B1 chain with R1042W
B6: RFP-Codanin-1 M1-G600 (bicistronic plasmid) (domain or fragment, UniProt Q8IWY9 1-600)
chain: MAAVLESLLREEVSVAAVVRWIARSTQGSEDNAGEAAALSSLRALRKEFVPFLLNFLREQSSRVLPQGPPTPAKTPGASAALPGRPGGPPRGSRGARSQLFPPTEAQSTAAEAPLARRGGRRRGPGPARERGGRGLEEGVSGESLPGAGGRRLRGSGSPSRPSLTLSDPPNLSNLEEFPPVGSVPPGPTGTKPSRRINPTPVSEERSLSKPKTCFTSPPISCVPSSQPSALDTSPWGLGLPPGCRSLQEEREMLRKERSKQLQQSPTPTCPTPELGSPLPSRTGSLTDEPADPARVSSRQRLELVALVYSSCIAENLVPNLFLELFFVFQLLTARRMVTAKDSDPELSPAVLDSLESPLFQSIHDCVFFAVQVLECHFQVLSNLDKGTLKLLAENERLLCFSPALQGRLRAAYEGSVAKVSLVMPPSTQAVSFQPETDNRANFSSDRAFHTFKKQRDVFYEVLREWEDHHEEPGWDFEKGLGSRIRAMMGQLSAACSHSHFVRLFQKQLLQMCQSPGGAGGTVLGEAPDVLSMLGADKLGRLWRLQERLMAPQSSGGPCPPPTFPGCQGFFRDFILSASSFQFNQHLMDSLSLKIQELNG
B7: RFP-Codanin-1 M1-P800 (bicistronic plasmid) (domain or fragment, UniProt Q8IWY9 1-800)
chain: MAAVLESLLREEVSVAAVVRWIARSTQGSEDNAGEAAALSSLRALRKEFVPFLLNFLREQSSRVLPQGPPTPAKTPGASAALPGRPGGPPRGSRGARSQLFPPTEAQSTAAEAPLARRGGRRRGPGPARERGGRGLEEGVSGESLPGAGGRRLRGSGSPSRPSLTLSDPPNLSNLEEFPPVGSVPPGPTGTKPSRRINPTPVSEERSLSKPKTCFTSPPISCVPSSQPSALDTSPWGLGLPPGCRSLQEEREMLRKERSKQLQQSPTPTCPTPELGSPLPSRTGSLTDEPADPARVSSRQRLELVALVYSSCIAENLVPNLFLELFFVFQLLTARRMVTAKDSDPELSPAVLDSLESPLFQSIHDCVFFAVQVLECHFQVLSNLDKGTLKLLAENERLLCFSPALQGRLRAAYEGSVAKVSLVMPPSTQAVSFQPETDNRANFSSDRAFHTFKKQRDVFYEVLREWEDHHEEPGWDFEKGLGSRIRAMMGQLSAACSHSHFVRLFQKQLLQMCQSPGGAGGTVLGEAPDVLSMLGADKLGRLWRLQERLMAPQSSGGPCPPPTFPGCQGFFRDFILSASSFQFNQHLMDSLSLKIQELNGLALPQHEPNDEDGESDVDWQGERKQFAVVLLSLRLLAKFLGFVAFLPYRGPEPPPTGELQDSILALRSQVPPVLDVRTLLQRGLQARRAVLTVPWLVEFLSFADHVVPLLEYYRDIFTLLLRLHRSLVLSQESEGKMCFLNKLLLLAVLGWLFQIPTVPEDLFFLEEGPSYAFEVDTVAPEHGLDNAPVVDQQLLYTCCP
B8: RFP-Codanin-1 M1-Q1000 (bicistronic plasmid) (domain or fragment, UniProt Q8IWY9 1-1000)
chain: MAAVLESLLREEVSVAAVVRWIARSTQGSEDNAGEAAALSSLRALRKEFVPFLLNFLREQSSRVLPQGPPTPAKTPGASAALPGRPGGPPRGSRGARSQLFPPTEAQSTAAEAPLARRGGRRRGPGPARERGGRGLEEGVSGESLPGAGGRRLRGSGSPSRPSLTLSDPPNLSNLEEFPPVGSVPPGPTGTKPSRRINPTPVSEERSLSKPKTCFTSPPISCVPSSQPSALDTSPWGLGLPPGCRSLQEEREMLRKERSKQLQQSPTPTCPTPELGSPLPSRTGSLTDEPADPARVSSRQRLELVALVYSSCIAENLVPNLFLELFFVFQLLTARRMVTAKDSDPELSPAVLDSLESPLFQSIHDCVFFAVQVLECHFQVLSNLDKGTLKLLAENERLLCFSPALQGRLRAAYEGSVAKVSLVMPPSTQAVSFQPETDNRANFSSDRAFHTFKKQRDVFYEVLREWEDHHEEPGWDFEKGLGSRIRAMMGQLSAACSHSHFVRLFQKQLLQMCQSPGGAGGTVLGEAPDVLSMLGADKLGRLWRLQERLMAPQSSGGPCPPPTFPGCQGFFRDFILSASSFQFNQHLMDSLSLKIQELNGLALPQHEPNDEDGESDVDWQGERKQFAVVLLSLRLLAKFLGFVAFLPYRGPEPPPTGELQDSILALRSQVPPVLDVRTLLQRGLQARRAVLTVPWLVEFLSFADHVVPLLEYYRDIFTLLLRLHRSLVLSQESEGKMCFLNKLLLLAVLGWLFQIPTVPEDLFFLEEGPSYAFEVDTVAPEHGLDNAPVVDQQLLYTCCPYIGELRKLLASWVSGSSGRSGGFMRKITPTTTTSLGAQPSQTSQGLQAQLAQAFFHNQPPSLRRTVEFVAERIGSNCVKHIKATLVADLVRQAESLLQEQLVTQGEEGGDPAQLLEILCSQLCPHGAQALALGREFCQRKSPGAVRALLPEETPAAVLSSAENIAVGLATEKACAWLSANITALIRREVKAAVSRTLRAQ

How the values were obtained:
[1] = target: T1, GFP-tagged C15ORF41, U2OS cells (human) (UniProt Q9Y2V0); assay: co-IP; tagged GFP-C15ORF41 and RFP-Codanin-1; salt concentrations up to 1 M, RIPA buffer containing 0.1% SDS
T1 sequence: B3 chain

[2] = target: T1, GFP-tagged C15ORF41, U2OS cells (human); assay: co-IP; GFP-Trap affinity beads, ~0.5 mg of lysate of U2OS cells co-expressing GFP- and RFP-tagged proteins; western blotting with anti-GFP and anti-RFP
[3] = target: T2, C15ORF41, endogenous in U2OS cells (human (endogenous in U2OS)) (UniProt Q9Y2V0); assay: co-IP; endogenous proteins from U2OS extracts; in-house anti-C15ORF41 or two commercial anti-Codanin-1 antibodies with protein G beads; western blotting; non-specific (anti-GFP) IgG as control
T2 sequence: B3 chain

[4] = target: T3, Codanin-1, endogenous in U2OS cells (human (endogenous in U2OS)) (UniProt Q8IWY9); assay: as above
T3 sequence: B1 chain

[5] = target: T4, GFP-C15ORF41 (full-length; aa1-281) from the bicistronic plasmids (human) (UniProt Q9Y2V0); assay: co-IP; U2OS cells transiently transfected with bicistronic vectors co-expressing GFP-C15ORF41 and full-length or truncated RFP-Codanin-1; GFP-Trap beads; two-colour western blotting
T4 sequence: B3 chain

Row | Binder | binding [2] | binding [5] | further results
1 | B1 | binds |  | binding [1]: binds
2 | B2 |  |  | binding [3]: binds
3 | B3 |  |  | binding [4]: binds
4 | B4 | binds |  | 
5 | B5 | binds |  | 
6 | B6 |  | no binding | 
7 | B7 |  | no binding | 
8 | B8 |  | no binding | 
